Test results from article PMC9374335, “C11orf94/Frey is a key regulator for male fertility by controlling Izumo1 complex assembly” (Science Advances, 2022).
Numbering of substitutions follows the chain as printed. Names may count otherwise. These are yes or no findings as the source states them, for the method shown. Binding seen in cells or lysates may run through a third protein. Some entries that bind do so weakly or less than the wild type. For some of these results: Where a sequence is shown, tags or fusion partners need not be part of it. One block for each binder: values may come before it.

Assays:
SPPL2c-3xFLAG (mouse) [1] = target: T1, SPPL2c-3xFLAG (mouse) (UniProt A2A6C4); test: co-IP; CHAPSO-solubilized proteins from transfected HeLa cells precipitated with anti-FLAG beads; Western blot
T1 sequence: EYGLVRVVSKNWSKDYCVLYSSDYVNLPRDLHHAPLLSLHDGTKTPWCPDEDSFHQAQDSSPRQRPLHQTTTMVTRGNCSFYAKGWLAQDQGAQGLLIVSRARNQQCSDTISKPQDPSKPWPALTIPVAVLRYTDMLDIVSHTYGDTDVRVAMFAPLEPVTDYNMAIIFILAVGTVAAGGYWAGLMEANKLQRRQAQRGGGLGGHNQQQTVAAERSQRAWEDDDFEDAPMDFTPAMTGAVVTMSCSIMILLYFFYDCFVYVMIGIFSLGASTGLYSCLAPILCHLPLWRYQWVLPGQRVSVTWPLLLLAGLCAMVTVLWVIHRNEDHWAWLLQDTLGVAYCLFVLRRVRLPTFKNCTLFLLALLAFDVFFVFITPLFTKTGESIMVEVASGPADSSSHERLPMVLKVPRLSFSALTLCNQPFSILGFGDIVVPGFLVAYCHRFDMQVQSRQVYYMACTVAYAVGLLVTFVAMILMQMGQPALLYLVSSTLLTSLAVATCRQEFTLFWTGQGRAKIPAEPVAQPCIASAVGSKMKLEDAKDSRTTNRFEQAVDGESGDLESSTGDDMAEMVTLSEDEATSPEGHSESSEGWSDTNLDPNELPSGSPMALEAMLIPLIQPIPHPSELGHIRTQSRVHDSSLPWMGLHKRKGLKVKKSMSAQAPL

[2] = target: T2, murine C11orf94 equipped with a C-terminal triple-FLAG tag (mouse), Q8CF31; test: as above; settings: remark: other sources report otherwise
T2 chain: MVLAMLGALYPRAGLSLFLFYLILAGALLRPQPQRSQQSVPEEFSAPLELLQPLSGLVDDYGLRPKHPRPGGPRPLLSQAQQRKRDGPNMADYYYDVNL

[3] = target: T3, C11orf94 (endogenous, mouse testis) (mouse (endogenous in testis)) (UniProt Q8CF31); test: co-IP; C11orf94 precipitated from CHAPSO homogenates of Wt or C11orf94-/- testes with anti-C11orf94 Sepharose; Western blot
T3 sequence: T2 chain

[4] = target: T4, murine C11orf94 equipped with a C-terminal triple-FLAG tag (mouse) (UniProt Q8CF31); test: co-IP; CHAPSO lysates of transfected HEK293T cells; 3xFLAG-tagged bait precipitated with anti-FLAG beads; with or without coexpressed C11orf94-3xmyc; Western blot
T4 sequence: T2 chain

SPPL2c-3xFLAG (mouse) [5] = target: T1, SPPL2c-3xFLAG (mouse); test: as above
Izumo1-3xFLAG = target: T5, Izumo1-3xFLAG (mouse, UniProt Q9D9J7 22-397); test: as above
T5 construct: Izumo sperm-egg fusion protein 1, mouse; open reading frame amplified from murine testis cDNA; source: HEK293T, transfected, in lysate (CHAPSO); not shown: 3xFLAG, C-terminal, kept
T5 sequence (looked up): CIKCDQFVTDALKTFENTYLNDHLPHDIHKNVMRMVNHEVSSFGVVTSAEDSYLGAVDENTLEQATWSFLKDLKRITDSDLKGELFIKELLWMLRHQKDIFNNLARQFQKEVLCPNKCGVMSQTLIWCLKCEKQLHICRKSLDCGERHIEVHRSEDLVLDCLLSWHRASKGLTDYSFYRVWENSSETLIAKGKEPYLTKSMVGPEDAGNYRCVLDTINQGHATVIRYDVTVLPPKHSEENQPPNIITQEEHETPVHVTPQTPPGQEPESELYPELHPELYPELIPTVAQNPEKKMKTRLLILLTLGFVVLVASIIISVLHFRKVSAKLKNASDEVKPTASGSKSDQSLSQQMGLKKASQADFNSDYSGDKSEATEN

[6] = target: T6, Izumo1 (endogenous, mouse testis and sperm) (mouse (endogenous in testis and sperm)) (UniProt Q9D9J7); test: co-IP; Izumo1 precipitated from CHAPSO lysates of noncapacitated sperm cells of Wt or C11orf94-deficient mice with anti-Izumo1 coupled to agarose (Pierce Direct IP kit); Western blot
T6 sequence: T5 sequence (looked up)

[7] = target: T4, murine C11orf94 equipped with a C-terminal triple-FLAG tag (mouse); test: co-IP; transfected HEK cells; lysis with 1% Triton X-100; C11orf94-3xFLAG pulled down with anti-FLAG and protein G agarose beads; Western blot
[8] = target: T7, SPPL2c (endogenous, mouse testis) (mouse (endogenous in testis)) (UniProt A2A6C4); test: co-IP; testes from wild-type or Sppl2c-/- mice lysed in 0.5% CHAPSO; SPPL2c precipitated with a specific antibody and protein G agarose; Western blot
T7 sequence: T1 sequence

binding (SPPL2c-3xFLAG (mouse) [1]): binds
B1: Izumo1-myc (protein, UniProt Q9D9J7 22-397)
chain: T5 sequence (looked up)

B2: Izumo1-HA, Q9D9J7 22-397 (protein)
chain: T5 sequence (looked up)
binding [2]: binds

binding [3]: binds weakly
B3: Izumo1 (endogenous, mouse testis and sperm) (protein, UniProt Q9D9J7 22-397)
chain: T5 sequence (looked up)

binding [4]: no binding | binding (SPPL2c-3xFLAG (mouse) [5]): binds | binding (Izumo1-3xFLAG): binds
B4: murine ACE3 equipped with a C-terminal HA-tag (natural protein, mouse, UniProt D0G895 24-737, looked up)
chain: VGETSLNDFYSEAQAKLFLQFYEQTAQVVLNEFMEATWNYVTNITKQNQKNMLQKEADRSQFMLYFSTRARMFRTDHFLNQDVKRMLRKLQNIDKSALPTEDLLEYNRLLTYMETAYNRAEVCLDEGPCLTLEPDLQEIMATSRDQKELLWAWQGWRDAVGRQLRPVFEDYVRLSNKAAQYNGYKDMGALWRSKYESDTLEEDLEQLYKELQPLYLNLHAYVRRSLYRYYGPELIDLRGPIPAHLLGNMWAQSWNNILDLVLPYPTKAPEDITAIMKIQHWRPEKMFEEANLFFTSMGMLPAPPAFWIKSMMEKPADGREVECHTSSWNFYKFNDFRVKKCTEVTLEDLLSVFHQMGHIQYFLQYQNLSVIYQEGASPAFEEAVGSVIALSVSSHKYLLARGLLSQPHQDSEEEVNFLLGIALEKIAFIPFSYLVDKFRWKIFDGTISKITYNQEWWNFRLKYQGLCPPVPRSDDDFDPGAKFHIPANVPYIRYFLGLILQFQLHEALCEASGHVGPLHQCDNYNSKVAGKILGDLLKLGSSRPWREVLQEVTGESNISTKAFLTYFKPLMDWLVTENVKQGDTLGWPDFSCSFEEKITSKVSFLGTDTEPEQAYLGQWVLLSMSFFMLVLILALGFRLHYLEKQLLDEDTMILKTLPYSYFLGIAMEPHQAARKQWLLLGLCCILMLCCIGLLIRIVTQNTENTPWMKNEGQS
notes: Angiotensin-converting enzyme 3 (ACE3), mouse; open reading frame amplified from murine testis cDNA; also called ACE3-HA; angiotensin-converting enzyme 3; source: HEK293T, transiently transfected, in lysate (CHAPSO); not shown: HA, C-terminal, kept

binding [6]: binds weakly
B5: ACE3 (endogenous, mouse sperm) (protein, UniProt D0G895 24-737)
chain: B4 chain

binding [7]: binds
B6: mSPPL2c-myc (enzyme, UniProt A2A6C4 29-690)
chain: T1 sequence

binding [7]: binds
B7: SPPL2c F455L (enzyme, UniProt A2A6C4 29-690)
chain: T1 sequence with F427L

binding [8]: binds
B8: C11orf94 (endogenous, mouse testis) (protein, UniProt Q8CF31 1-99)
chain: T2 chain
